Source: PubChem BioAssay AID540267 (National Center for Advancing Translational Sciences (NCATS), 2011)
In all, about 340,000 compounds went through this assay and about 530 (0.16%) were called active. This list was built around the results that the source calls inconclusive (neither active nor inactive); the mix of calls is not that of the screen. No stated cut-off is given here; in the data, active means activity change below about -80%; inconclusive means between about -30% and that limit; inactive means weaker than that.

Test: Small Molecules that selectively kill Giardia lamblia: qHTS;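 further: parasites exposed to compound for two days anaerobically before the ATP read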
Conditions: Giardia lamblia trophozoite viability; at 7.66 µM; hits give low values
Summary of the method: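 ATP-content bioluminescence gauges trophozoite survival. Cells (100/well) receive compound and incubate anaerobically for 48 hrs at 37 deg C; detection reagent follows for 15-30 min at room temperature.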
On the % scale 0 is the no-effect control and ±100 the full control effect.

| SMILES | activity change |
| --- | --- |
| COc1ccccc1NC(=O)c1ccc(NC(=O)CN2CCN(C(=O)c3ccco3)CC2)cc1 | inconclusive: -41.6% [inhibitor] |
| CCC1(c2ccc(Cl)cc2)NC(=S)N(c2ccc(C)c(C)c2)N1 (stereo not given) | inactive: 18.1% |
| CC(=O)N1CCN(c2ccc(NC(=O)c3ccc(Cl)cc3)cc2)CC1 | inactive: -3.48% |
| O=C(c1cccc([N+](=O)[O-])c1)N1CCN(S(=O)(=O)/C=C/c2ccccc2)CC1 | inactive: 26.4% |
| CCOC(=O)c1c(C)[nH]c(C(=O)OCc2csc(CC(=O)Nc3ccccc3C)n2)c1C | inactive: 8.82% |
| Cc1ccccc1C(=O)Nc1ccc2c(c1)OCCO2 | inconclusive: -71.8% [inhibitor] |
| CCCn1c(C)cc(C(=O)COc2ccc(C)nc2[N+](=O)[O-])c1C | inconclusive: -53.9% [inhibitor] |
| CCOC(=O)c1sc2nc(-c3cccnc3)ccc2c1N | inconclusive: -37.2% [inhibitor] |
| O=C(COC(=O)c1cc(Cl)nc(Cl)c1)NCCc1ccc(F)cc1 | inconclusive: -41.3% [inhibitor] |
| CN(C)c1ccc(/C=C(\Cl)c2nc3ccccc3s2)cc1 | inconclusive: -30.1% [inhibitor] |
| O=C(Nc1ccc2cn[nH]c2c1)c1ccc(S(=O)(=O)N2CCOCC2)cc1 | inconclusive: -45.1% [inhibitor] |
| CCC(C(=O)N1CCOCC1)n1nc(C)n2c(cc3cc(C)ccc32)c1=O (stereo not given) | inconclusive: -47.3% [inhibitor] |
| CCOC(=O)C(=O)Nc1ccccc1C#N | inconclusive: -35.2% [inhibitor] |
| CCOC(=O)c1c(NC(=O)CN2CCCCC2)sc2c1CCCC2O (stereo not given) | inconclusive: -31.7% [inhibitor] |
| COc1ccc(-c2ccc(SC)nn2)cc1 | inconclusive: -47.7% [inhibitor] |
| C/C=C/C(=O)Nc1cccc(C2=NOC3(C2)C[C@H](C(N)=O)N(C(=O)/C=C/C)C3)c1 (stereo not given in full) | inconclusive: -36% [inhibitor] |
| O=C(Nc1nccs1)c1ccc(NC(=O)C2CC=CCC2C(=O)O)cc1 (stereo not given) | inactive: -17.7% |
| CC(NC(=O)C1CCC(CNC(=O)[C@@H]2Cc3ccccc3CN2)CC1)c1ccccc1 (stereo not given in full) | inconclusive: -30.1% [inhibitor] |
| COc1ccc(-n2ncc3c(N4CCC(C)CC4)ncnc32)cc1 | inconclusive: -32% [inhibitor] |
| COc1cccc(C(=O)N2CCN(Cc3ccccc3C(F)(F)F)CC2)c1 | inactive: 27.6% |
| O=c1[nH]c(N2CCN(c3ccccc3)CC2)nc2c1CCCC2 | inconclusive: -31.7% [inhibitor] |
| O=C(c1cc(-c2ccccc2)n[nH]1)N1CCN(S(=O)(=O)c2ccccc2)CC1 | inactive: 11% |
| O=C(N/N=C/c1ccncc1)c1ccccc1[N+](=O)[O-] | inactive: -6.14% |
| CC(C)c1cc(CNC(=O)CCc2nnc(CCCc3ccccc3)o2)on1 | inactive: 5.43% |
| C=CCNC(=S)NCc1ccccc1OC | inactive: -26.8% |
| COc1ccc(NC(=O)c2cccc(N3C(=O)c4ccc(C(=O)Nc5ccc(OC)c(O)c5)cc4C3=O)c2)cc1O | inconclusive: -34.1% [inhibitor] |
| CCOC(=O)c1ccc(NC(=O)Cn2c(-c3nonc3N)nc3ccccc32)cc1 | inconclusive: -38.8% [inhibitor] |

| SMILES | activity change |
| --- | --- |
| Cc1ccc(Nc2nnc(SCC(=O)c3c(N)n(C4CC4)c(=O)[nH]c3=O)s2)cc1C | inconclusive: -37% [inhibitor] |
| Cc1nn(-c2nc(-c3ccco3)cc(C(F)(F)F)n2)c(C)c1Br | inconclusive: -32.7% [inhibitor] |
| CN(C)c1ccc(/C=C/c2ccc3ccccc3n2)cc1 | inconclusive: -79.8% [inhibitor] |
| COc1ccc(OC)c(-n2nnnc2SCC(=O)Nc2ccc(C(=O)N3CCCCC3)cc2)c1 | inactive: 11% |
| CCOC(=O)c1cccc(NC(=O)CNS(=O)(=O)c2cccs2)c1 | inactive: 10.3% |
| O=C(Nc1nnc(-c2ccc(F)cc2)o1)c1cccc([N+](=O)[O-])c1 | inconclusive: -36.9% [inhibitor] |
| CCc1ccc(-c2cc(C(=O)Nn3cnnc3)c3ccccc3n2)cc1 | active: -100% |
| CC(=O)NNC(=S)NC(=O)C(c1ccccc1)c1ccccc1 | inconclusive: -32.5% [inhibitor] |
| COc1ccc(OC)c2sc(N3CCN(C(=O)c4ccc([N+](=O)[O-])s4)CC3)nc12 | inconclusive: -73.3% [inhibitor] |
| CC/C(=N\n1nnnc1Nc1ccccc1)c1ccccc1 | inconclusive: -30.8% [inhibitor] |
| COc1ccc(C(=O)NC(=S)Nc2ccc3oc(=O)ccc3c2)cc1[N+](=O)[O-] | inconclusive: -31.8% [inhibitor] |
| O=C(Nc1ccc2c(c1)CCC2)c1cccc(F)c1 | inconclusive: -33.6% [inhibitor] |
| Cc1occc1-c1nc(-c2ccncc2)no1 | inactive: 6.41% |
| CC(C)CNS(=O)(=O)c1ccc(CCC(=O)N2CCN(c3ccccc3)CC2)cc1 | inactive: 13.7% |
| COc1cc(NC(=O)CCNS(=O)(=O)c2cc(Br)cnc2N)cc(OC)c1 | inconclusive: -41.7% [inhibitor] |
| COc1ccc(N/C=C/C(=O)c2sc(-c3ccccc3)nc2C)cc1 | inactive: 6.7% |
| CCN1C(=O)/C(=C\c2cccc(OC(=O)c3ccco3)c2)SC1=S | inconclusive: -38.6% [inhibitor] |
| COc1ccc(/C=C/c2cc(C(=O)O)c3ccccc3n2)cc1 | active: -92.9% |
| Cc1c(C(=O)Nc2ccc(S(=O)(=O)N(C)C3CCN(C)CC3)cc2)oc2c(Cl)cccc12 | inactive: 18.4% |
| CC(C)C(NC(=O)c1ccccc1)C(=O)OCC(=O)N1CCCCC1 (stereo not given) | inactive: -3.31% |
| CC(C)Nc1nc(NNc2nc(Cl)nc(NC(C)(C)C)n2)nc(NC(C)C)n1 | inconclusive: -35% [inhibitor] |
| O=C1N=C(N2CCCCC2)S/C1=C/C1=Cc2ccccc2OC1 | inactive: -6.18% |
| Cc1ccc(CNC(=O)c2cc(=O)c3ccc(C)cc3o2)cc1 | inactive: 19.5% |
| COc1ccc(C(=O)NC2CCN(CC(=O)N3CCCCC3)CC2)cc1 | inactive: 1.06% |
| COc1ccc(CCNC(=O)CN2CCN(Cc3ccccc3F)C2=O)cc1OC | inconclusive: -41.2% [inhibitor] |
| COc1ccc(N/N=C/c2c(C(=O)O)ccc3ccccc23)cc1 | inactive: 22.1% |
| C=CCSc1nnc(NC(=O)CSc2ccccn2)s1 | inactive: 6.61% |

| SMILES | activity change |
| --- | --- |
| COC(=O)COc1ccc(C)cc1-n1nc2ccccc2n1 | inconclusive: -34.9% [inhibitor] |
| Cn1c(C(=O)c2ccncc2)cc2ccccc21 | inconclusive: -44.5% [inhibitor] |
| Cn1c(CNC(=O)C(Cc2ccccc2)NC(=O)c2ccccc2F)cc(=O)n(C)c1=O (stereo not given) | inconclusive: -36.4% [inhibitor] |
| CC(=O)c1cccc(S(=O)(=O)Nc2cccnc2)c1 | inconclusive: -36.8% [inhibitor] |
| COc1ccc(-n2ncc(C(=O)N3CCN(c4ccc(F)cc4)CC3)c2C)cc1 | inactive: -2.58% |
| COc1ccc(C(=O)Nc2ccc3c(c2)OCCO3)cc1 | inconclusive: -60.3% [inhibitor] |
| O=C(Nc1ccon1)c1ccc(OC2CCCC2)cc1 | inconclusive: -30.6% [inhibitor] |
| CCC(C)[C@H]1COCCS(=O)(=O)N1Cc1ccccc1 (stereo not given in full) | inconclusive: -30% [inhibitor] |
| COc1ccc(-c2cc3ccc(OC)cc3cn2)cc1 | inconclusive: -42.2% [inhibitor] |
| COc1cc(NC(=O)C(=O)NCCN(C)C)c(OC)cc1Cl | inconclusive: -35.3% [inhibitor] |
| N=NC(=O)c1ccccc1Nc1c(O)[nH]c2ccccc12 | inconclusive: -72.5% [inhibitor] |
| Cc1nn(Cc2ccccc2)c(C)c1C(=O)N1CCN(CC(=O)Nc2ccccc2Cl)CC1 | inconclusive: -38% [inhibitor] |
| CC1CCN(c2ccc(-c3cccc(NC(=O)C(F)(F)F)c3)nn2)CC1 | active: -84.4% |
| O=c1[nH][nH]c(-c2ccccc2)c1C=Nc1ccc(OC(F)(F)F)cc1 | inconclusive: -49.4% [inhibitor] |
| O=C(CN1C(=O)c2ccccc2C1=O)Nc1ccc(S(=O)(=O)N2CCOCC2)cc1 | inconclusive: -35.1% [inhibitor] |
| CSc1ccc(/C=C(\C#N)C(=O)NC2CCCCC2C)cc1 (stereo not given) | inconclusive: -32.9% [inhibitor] |
| CCOc1ccc(/C=C2\NC(=S)NC2=O)cc1 | inconclusive: -32.2% [inhibitor] |
| COc1ccc(NC(=S)N(CCN(C)C)C(C)c2ccco2)cc1Cl (stereo not given) | inactive: 0.8% |
| Cc1ccc(CSc2nnc(-c3cccc(S(=O)(=O)N4CCOCC4)c3)n2CC(C)C)cc1 | inactive: 8.68% |
| CC(C)(C)c1ccc(Cn2c(=O)cnc3ccccc32)cc1 | inactive: -11.4% |
| Cc1c(Cl)c([N+](=O)[O-])nn1CC(=O)N1CCCC1 | inconclusive: -30.3% [inhibitor] |
| CCCCSc1nc(N)c(C#N)c(-c2cccs2)c1C#N | inconclusive: -31.5% [inhibitor] |
| CC(=O)Nc1ccc(S(=O)(=O)N2CCN(c3nc4ccccc4n3CC(C)C)CC2)cc1 | inconclusive: -33.2% [inhibitor] |
| O=C(Nc1cc(C(F)(F)F)ccc1-n1cncn1)c1ccc([N+](=O)[O-])o1 | inconclusive: -59.4% [inhibitor] |
| Cc1ccc(-c2cc(C(=O)N3CCOCC3)no2)cc1 | inconclusive: -37.1% [inhibitor] |
| CSC(=NS(=O)(=O)c1ccccc1)SC | inconclusive: -36.7% [inhibitor] |
